Test results reported in paper PMC7819943, “Rice protein-binding microarrays: a tool to detect cis-acting elements near promoter regions in rice”.
The other results are listed elsewhere or left out.

target: T1, OsWOX13 (Oryza sativa, UniProt Q5QMM3 1-267); assay: protein-binding microarray (RPBM); PBS, 2% BSA, 51.3 ng/ul salmon testes DNA, 50 uM zinc acetate, 200 nM TF, 25 C, 1 h; high values mean tight binding; conditions: protein: recombinant; tags: N-terminal polyhistidine and DsRed monomer fusion (pET32a); label: CyDye5-dUTP incorporated in the synthesized complementary strand; 3' TTTTT single-stranded linker to array surface; dsDNA, one strand shown
T1 sequence: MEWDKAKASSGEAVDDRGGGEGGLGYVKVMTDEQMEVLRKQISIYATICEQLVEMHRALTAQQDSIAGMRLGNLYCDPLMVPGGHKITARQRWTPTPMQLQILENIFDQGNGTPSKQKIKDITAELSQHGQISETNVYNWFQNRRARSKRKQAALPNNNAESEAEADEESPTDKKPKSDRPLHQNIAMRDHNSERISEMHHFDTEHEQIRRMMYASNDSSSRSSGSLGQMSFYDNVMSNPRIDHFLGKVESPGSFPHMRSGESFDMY
Summary of the method: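 The binding signal is fluorescence intensity per feature, in arbitrary units, read on an Axon 4000B scanner. Polyhistidine- and DsRed-tagged transcription factors (N-terminal fusions) from E. coli BL21-CodonPlus were purified on Ni–NTA and applied at 200 nM for 1 h at 25 °C to a double-stranded, BSA-blocked custom Agilent array in buffer with 50 µM zinc acetate.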

Row | Sequence | binding signal
1 | CACAGCTAAATTAGCTTATTCGTTGACACTTCCTCTCTTTCGGAGTCACCTAGTGCAG | 11900 fluorescence intensity (a.u.)
2 | ATTAACAGGATGTTCTTGCACCAACAAGACTGTCATTAGCCGGAGTCACCTAGTGCAG | 8890 fluorescence intensity (a.u.)
3 | TAAAATTTATTTGGTTACTGATCTACTCCCTCCGTCTTGACGGAGTCACCTAGTGCAG | 3940 fluorescence intensity (a.u.)
4 | TAACCACAGTAATTAATCTCAAATTAAAGCCACAGTGCACCGGAGTCACCTAGTGCAG | 7820 fluorescence intensity (a.u.)
5 | TCCCTCCTTACCAAATTGATCATCACGTAATAGAATCTAACGGAGTCACCTAGTGCAG | 7460 fluorescence intensity (a.u.)
6 | TATGATTCTAACAGGAATAAGTGTGAAACAGAGGATTACACGGAGTCACCTAGTGCAG | 3410 fluorescence intensity (a.u.)
7 | ATTTAATTGATCGAACTAAGGCTAAACAACAAGGGAATCACGGAGTCACCTAGTGCAG | 36700 fluorescence intensity (a.u.)
8 | CATATAATTAGTTAGGTATGTAATCATGGATTGTGAAATACGGAGTCACCTAGTGCAG | 19100 fluorescence intensity (a.u.)
9 | AAATGACAAATAAAATTTGACCGGAGTGATAGTGGTGTGGCGGAGTCACCTAGTGCAG | 6620 fluorescence intensity (a.u.)
10 | ATCTAATAGACTAATACACAGTCAAGCGCGCGCCGCACGCCGGAGTCACCTAGTGCAG | 14100 fluorescence intensity (a.u.)
11 | CTGTTTTGACAAATTGTTCATCGGTCGCTGCTTCTGTGGACGGAGTCACCTAGTGCAG | 4590 fluorescence intensity (a.u.)
12 | GGCAAACTTTTGTCAATTAATGTTAATACTGGACTACATTCGGAGTCACCTAGTGCAG | 14700 fluorescence intensity (a.u.)
13 | ACTGGAAGATAGCTAATTAATTAGCTAGCTAAAGCTTCTCCGGAGTCACCTAGTGCAG | 15700 fluorescence intensity (a.u.)
14 | ATCAACTGATTAGGTTTCTTGTGGTGGAATCAGCCTACCCCGGAGTCACCTAGTGCAG | 29000 fluorescence intensity (a.u.)
15 | ATGCGATTTTAATTAACCGTGCAGAATTCTGAATTCCCAACGGAGTCACCTAGTGCAG | 10200 fluorescence intensity (a.u.)
16 | GCCAACAAGTATATGATTGCGACATTTGTACGGTGACAACCGGAGTCACCTAGTGCAG | 5310 fluorescence intensity (a.u.)
17 | AGACTATTTGGAGAATTAATTGATCACAACTAGACATTCACGGAGTCACCTAGTGCAG | 16100 fluorescence intensity (a.u.)
18 | CAAATAATAGACTGATTATAATTCTCAATCGGCTAAAACCCGGAGTCACCTAGTGCAG | 33000 fluorescence intensity (a.u.)
19 | ATCCCGATTAACTGAACATGAAACAAAGCCAATCTCTGGTCGGAGTCACCTAGTGCAG | 9540 fluorescence intensity (a.u.)
20 | GTTCATTAATTACAAGGTACTAATACCTATTAATATCTCCCGGAGTCACCTAGTGCAG | 14600 fluorescence intensity (a.u.)
21 | AAATATTAATTACTATATTTTCAATAAACACTCGCATTTACGGAGTCACCTAGTGCAG | 12500 fluorescence intensity (a.u.)

Row | Sequence | binding signal
22 | CTTATTTTAATTTCAATTTATTTTGTTAGAACTATTTTCACGGAGTCACCTAGTGCAG | 16000 fluorescence intensity (a.u.)
23 | GAAATAAGTTATAAATAATTAAGATGATGTGGTTTATAACCGGAGTCACCTAGTGCAG | 5300 fluorescence intensity (a.u.)
24 | TCCATGATTTAATAATGTTGTGCTATAGTAAACATTTGCTCGGAGTCACCTAGTGCAG | 33900 fluorescence intensity (a.u.)
25 | GGCCTAAATTATTACTCCGTATTCTATTGTTAACGCCGTTCGGAGTCACCTAGTGCAG | 9550 fluorescence intensity (a.u.)
26 | ATTAATTATGTGCTAATAGGTGGTGTTTGAAACTCATGTACGGAGTCACCTAGTGCAG | 37000 fluorescence intensity (a.u.)
27 | AAAATTCAATCTAGCTTTCTAATAGCCCATCTTTGTTTAACGGAGTCACCTAGTGCAG | 5690 ± 65.8 fluorescence intensity (a.u.)
28 | TGAAGATTGAAGAGGAGGATGGATGGGGCGCAGCGCAATGCGGAGTCACCTAGTGCAG | 9110 fluorescence intensity (a.u.)
29 | CTTTGTAAATTAAATTAAAGTGCTCGAAAATTTTATATTTCGGAGTCACCTAGTGCAG | 3160 fluorescence intensity (a.u.)
30 | TGCTAACCGTGTAATTGAGCGGACCACCTGTTAGTTTTGGCGGAGTCACCTAGTGCAG | 11700 fluorescence intensity (a.u.)
31 | CCGGATAATTGTTTTATTGAGTAGCATTGATGAGGTCTTGCGGAGTCACCTAGTGCAG | 23900 fluorescence intensity (a.u.)
32 | CTCCATCATTGACACGAGCTTGCTGTTAATTTGAGCCCCTCGGAGTCACCTAGTGCAG | 7920 fluorescence intensity (a.u.)
33 | TATATATATATAATTATGCATCCTGGTTAGCAATTAATGTCGGAGTCACCTAGTGCAG | 3400 fluorescence intensity (a.u.)
34 | GTGTTAATGGGATTGTGAGTATGATGTTGCGGGTAGTGATCGGAGTCACCTAGTGCAG | 9870 fluorescence intensity (a.u.)
35 | ATAAATTAATTTATAGGTAACATTTATATATGTATTCTTACGGAGTCACCTAGTGCAG | 47800 fluorescence intensity (a.u.)
36 | AGGTGTGATGATAAAATTATTAGTACATGACTCAACCTAACGGAGTCACCTAGTGCAG | 4500 fluorescence intensity (a.u.)
37 | TCTGATTCAAACATAATTGCCAAAGCATCAAGTTATTGTGCGGAGTCACCTAGTGCAG | 27500 fluorescence intensity (a.u.)
38 | AATGTTCGATTTGATTTGAGTTCATTCAACATCTTTTGTCCGGAGTCACCTAGTGCAG | 4330 fluorescence intensity (a.u.)
39 | TGTGATTGAGGGCTACGAATTATAATCTGTAAAGTGCACTCGGAGTCACCTAGTGCAG | 45200 fluorescence intensity (a.u.)
40 | GTGTTTTGTCTTGATTTGTTCACATGGCACAGTAGTTAGCCGGAGTCACCTAGTGCAG | 5340 fluorescence intensity (a.u.)
41 | TGTTCCGTGATTAAAACAACAACAGCGCACATACGATACACGGAGTCACCTAGTGCAG | 6110 fluorescence intensity (a.u.)
42 | CTATTCACTCTATAATTATATATTGCCGATAAAATTCATCCGGAGTCACCTAGTGCAG | 5460 fluorescence intensity (a.u.)
